Experimental data from PubChem BioAssay AID1508642 (National Center for Advancing Translational Sciences (NCATS), 2021).
Among all 43,000 compounds or so, about 200 (0.47%) were called active. Roughly 12% stayed inconclusive and do not appear here. Calls come from the whole dose curve; as a rule, active = well fitted cell-killing curve with a large enough effect; inconclusive = small, poorly fitted or top-dose-only effect, or effect the other way; inactive = flat fitted curve, though single readings scatter. The list shows a part of the results.

Experiment: Cell viability qHTS assay in S16 Pmp22-F2sN cells; note: nearly all actives have a fitted effect of over 65% in size
Conditions: S16 Pmp22-F2sN Schwann cells (luciferase reporters placed in the Pmp22 gene) viability, CellTiter-Glo, 24 h; series mostly up to 57.5 µM; activity change, negative = cytotoxicity: at the top concentration
In short: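 CellTiter-Glo counter-screen, qHTS, 1536-well. Cells: S16(c9) Pmp22-F2sN, 500-1,000/well in DMEM + 10% FBS. Cpd 23 nL pin transfer, 24 h, 37C/5% CO2. Read: luminescence, CCD imager.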
% is set by controls: 0 for no effect and ±100 for the full control effect.

Compound	activity change, negative = cytotoxicity
CCOc1ccc(NC(=O)CSc2nnc(-c3ccc(C)cc3)c(-c3ccc(C)cc3)n2)cc1	inactive: -0.0432%
O=C(NC1CC(=O)N(c2ccc(Cl)cc2)C1)c1ccc(S(=O)(=O)N2CCCC2)cc1 (configuration not stated)	inactive: -19.2%
CCCC12CN3CC(C)(CN(C1)C3c1cn(C)c3ccccc13)C2=O (configuration not stated)	inactive: 1.32%
CCc1cccc(NCc2ccccc2-c2nnc(-c3ccccc3Cl)o2)c1	inactive: 2.43%
Cc1ccc(NC(=O)N2CCC(CN3CCC(C)CC3)CC2)cc1F	inactive: -5.31%
COc1ccc(-c2cc(C(F)(F)F)nc(SCC(=O)NCCc3ccc(OC)c(OC)c3)n2)cc1	inactive: 22.7%
CCCc1cc(=O)n2[nH]c(-c3ccc(C)cc3)nc2n1	inactive: -12.9%
Cc1ccc(NC(=O)C2CCCN(c3nnc(-n4c(C)ccc4C)s3)C2)cc1Cl (configuration not stated)	inactive: -12.9%
COc1cccc(CNC(=O)C(NS(=O)(=O)c2ccc3nc(C)sc3c2)C(C)C)c1 (configuration not stated)	inactive: 8%
CCOC(=O)c1c(C)c(-c2ccccc2)n(CC(=O)NCCc2ccc(C)cc2)c1C	inactive: 14.4%
Cc1ccc2nc(CSc3nnc(NC(=O)COc4ccccc4)s3)cc(=O)n2c1	inactive: 0.764%
CCOC(=O)c1ccc(NC(=O)c2cc(=O)c3cc(CC)ccc3o2)cc1	inactive: -0.182%
CCS(=O)(=O)NCC(c1ccco1)N1CCN(c2ccc(OC)cc2)CC1 (configuration not stated)	inactive: 0.31%
Cc1ccccc1CN1c2ccccc2-c2nc(SCC(=O)NCCc3ccccc3)ncc2S1(=O)=O	inactive: -3.89%
CCN(CC)c1ccc(-n2nc3cc(C)c(NC(=O)c4ccccc4F)cc3n2)cc1	inactive: 11%
Cc1cccc(NC(=O)CSc2nnc(C)c(=O)[nH]2)c1	inactive: -7.78%
COc1ccc(S(=O)(=O)N(C)Cc2nc(-c3cccc(C)c3)no2)cc1	inactive: -0.275%
O=C(CSc1nc2ccsc2c(=O)n1Cc1ccccc1F)NCc1ccccc1	inactive: 13.4%
CCc1ccc(NC(=O)N(Cc2ccc(C)cc2)Cc2cccn2-c2nnc(N3CCCC3=O)s2)cc1	inactive: -15.6%
O=C(Cc1csc2ccccc12)NCc1ccccc1F	inactive: 1.39%
CCOc1ccc(-c2nc(SCC(=O)Nc3ccc4c(c3)OCCO4)c(-c3ccc(F)cc3)[nH]2)cc1	inactive: -6.85%

Compound	activity change, negative = cytotoxicity
CN1CCN(C(c2cccc(Br)c2)c2sc3nc(-c4ccco4)nn3c2O)CC1 (configuration not stated)	inactive: -0.973%
CCOc1ccc(-c2nonc2NC(=O)c2ccc(C)cc2)cc1OCC	inactive: 2.85%
CC(=O)N1CCCc2cc(S(=O)(=O)N3CCN(c4ccc(F)cc4)CC3)ccc21	inactive: -11.8%
CCc1cccc(-n2nnc(-c3nc(-c4cccs4)no3)c2N)c1	inactive: 5.85%
Clc1ccc2nc(-c3ccc(Br)o3)c(Nc3ccc4c(c3)OCCO4)n2c1	inactive: 8.82%
COc1cccc(OC)c1C(=O)Nc1cccc(-c2nc3cc(C)cc(C)c3o2)c1	inactive: 4.64%
COc1ccc(NC(=O)c2noc3c2CSc2ccccc2-3)cc1Cl	inactive: -19.7%
Cc1ccc(NC(=O)Cn2c(C)cc(C)c(C#N)c2=O)cc1F	inactive: 16.6%
Cc1cc(C)c(/C=C/c2onc(C)c2S(=O)(=O)N2CCC(C(=O)N3CCN(c4ccc(Cl)cc4)CC3)CC2)c(C)c1	inactive: 4.08%
Cc1ccc(C(=O)Nc2nc3n(n2)C(c2ccccc2)C=C(c2ccccc2)N3)cc1 (configuration not stated)	inactive: -7.23%
CC1CCc2onc(C(=O)N3CCN(c4cccc(C(F)(F)F)c4)CC3)c2C1 (configuration not stated)	inactive: -23.7%
COc1ccc(-c2nc3ccccc3s2)cc1NC(=O)c1cc2ccccc2o1	inactive: -12.3%
Cc1ccc(NC(=O)CCNS(=O)(=O)c2cccc3nsnc23)cc1	inactive: 7.21%
Cc1ccc2nc(-c3ccc(C)c(NC(=O)CSc4ccc(Cl)cc4)c3)oc2c1	inactive: 7.91%
CCOc1ccc(N(C(=O)c2ccc(C)cc2)S(=O)(=O)c2ccc3c(c2)n(C)c(=O)n3C)cc1	inactive: -5.49%
CCn1cc(S(=O)(=O)c2cc(C)cc(C)c2)c(=O)c2cc(F)c(N3CCC(C)CC3)cc21	inactive: -29.7%
COc1ccc(OC)c(NC(=O)c2ccc3c(c2)c(C)c(C)n3Cc2ccc(F)cc2)c1	inactive: -12.5%
CCN(CC)C(=O)Cn1c(=O)n(CCCCCC(=O)NCc2ccccc2Cl)c(=O)c2sccc21	inactive: 2.61%
Cc1ccc2cccc(NC(=O)c3ccc(-c4cc(Cl)ccc4Cl)o3)c2n1	inactive: 10.2%
O=C(NCc1ccc(Cl)cc1)c1cc2ccccc2o1	inactive: 12.4%
Cc1ccc(Cl)cc1N1CCN(C(=O)Cn2cnc3nc4c(cc3c2=O)CCCC4)CC1	inactive: -19.3%

Compound	activity change, negative = cytotoxicity
Oc1ccc(Cl)cc1Nc1nc2ccccc2n2cnnc12	inactive: 8.93%
COc1ccc(CNC(=O)CCCc2cn(C)c3ccccc23)c(OC)c1	inactive: 4.77%
NC(=O)c1cc(S(=O)(=O)N2CCCCC2)cs1	inactive: -0.335%
COc1ccc(CCn2c3c(c(=O)[nH]c2=O)C(NC(=O)c2ccccc2)(C(F)(F)F)C(=O)N3)cc1OC (configuration not stated)	inactive: 9.96%
CCNC(=O)CC1C(=O)N(c2ccc(C)cc2)C(=O)N1Cc1ccc(C)cc1 (configuration not stated)	inactive: 19.7%
O=C(CCS(=O)(=O)c1ccc2c(c1)NC(=O)CO2)Nc1cccc(C(F)(F)F)c1	inactive: 7.65%
COc1ccc(NC(=O)Cn2nnc(C(=O)NCc3ccccc3Cl)c2N)cc1Cl	inactive: 4.47%
CCOC(=O)c1cc(-c2ccccc2)n(CCCC(=O)Nc2cccc(Cl)c2C)c1C	inactive: -15.8%
CSc1ccc(CCNC(=O)C(C)n2c(C)c3cnn(-c4ccccc4)c(=O)c3c2C)cc1 (configuration not stated)	inactive: 18.3%
Cc1nc(-c2ccc(F)cc2)sc1CCNC(=O)c1ccco1	inactive: -25.1%
CCc1ccc(CNC(=O)CCN2C(=O)COc3ccccc32)cc1	inactive: 11.8%
Cc1cc(C)cc(NC(=O)Cn2nnc(C(=O)Nc3cc(C)cc(C)c3)c2N)c1	inactive: -5.75%
O=C(Cn1c(=O)n(Cc2ccccc2)c(=O)c2oc3ccccc3c21)Nc1ccc(Cl)cc1	inactive: -3.68%
Cc1ccc(/C=C/c2onc(C)c2S(=O)(=O)N2CCC(C(=O)N3CCOc4ccccc43)CC2)cc1	inactive: 7.27%
CC(=O)Nc1cc(C(=O)NCc2ccc(F)cc2Cl)ccc1Sc1ccc(Cl)cc1	inactive: -22.7%
COC(=O)c1cc2oc(C)cc2n1CC(=O)Nc1ccc(C)cc1C	inactive: 4.14%
Cc1ccc(-n2ncc3c(NCCCc4ccccc4)ncnc32)cc1C	inactive: -15.2%
CC(C)c1ccc(NC(=O)c2ccc(NC(=O)CCS(=O)(=O)c3cccs3)cc2)cc1	inactive: 6.94%
Cc1ccc(CCNc2nc3c(S(=O)(=O)c4ccc(C)cc4)nnn3c3ccsc23)cc1	inactive: 1.15%
CCS(=O)(=O)N1CC(=O)N(c2cccc(C)c2C)C(C)(C(=O)NC2CCCCC2)C1 (configuration not stated)	inactive: -9.22%
